# Assay results: the supplement of paper PMC9135407
# Several values for one entry are separate records, joined by “and”; a condition that tells them apart may be missing. Equal values may be shown once. Where a name gives a salt, the structure may show the parent alone. Screen size: about 5,800 compounds; about 620 (11%) showed activity.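 The calls were made as follows: active = score above a cut-off or among the top three wells of a plate; in these data no inactive exceeds 0.85.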 Only a part is listed here, and it is no random draw.
# Tested on: primary human hepatic stellate cells (donor 1)
# Experiment: scaled lipid accumulation score (0 = DMSO-like, 1 = nortriptyline-like); higher = stronger HSC inactivation (lipid re-accumulation), active = hit call of the paper
# Settings: 48 h
# [1] = library stock concentration: 3.33 mM
# [2] = library stock concentration: 10 mM
# [3] = library stock concentration: 1 mM
structure (smiles),measurement,setting,value
CC1=C(C(=O)OC2CCCCC2)C(c2ccc([N+](=O)[O-])cc2)C2=C(CC(C)(C)CC2=O)N1 (stereo not drawn),scaled lipid accumulation score,[1],inactive: 0.763
C[C@@H]1C(=O)O[C@H]2C[C@@]34[C@H]5C[C@@H](C(C)(C)C)[C@]36[C@@H](OC(=O)[C@@H]6O)O[C@@]4(C(=O)O5)[C@]21O [Ginkgolide A],scaled lipid accumulation score,,inactive: 0.016
same,scaled lipid accumulation score,[1],inactive: ≤ 0
same,scaled lipid accumulation score,[2],inactive: 0.034
C[C@@H]1C(=O)O[C@H]2C[C@@]34[C@H]5C[C@@H](C(C)(C)C)[C@]36[C@@H](OC(=O)[C@@H]6O)O[C@@]4(C(=O)O5)[C@]21O [Ginkgolide a],scaled lipid accumulation score,library stock concentration: 4.9 mM,inactive: ≤ -0.006
same,scaled lipid accumulation score,[2],inactive: 0.025
O=C(CCSCc1ccco1)NNC(=O)N1Cc2ccccc2Oc2ccc(Cl)cc21,scaled lipid accumulation score,[2],inactive: ≤ 0
CC1=C(/C=C/C(C)=C/C=C/C(C)=C/C(=O)Nc2ccc(O)cc2)C(C)(C)CCC1 [Retinoic acid p-hydroxyanilide],scaled lipid accumulation score,[2],inactive: ≤ -0.025
CC1=C(/C=C/C(C)=C/C=C/C(C)=C/C(=O)Nc2ccc(O)cc2)C(C)(C)CCC1 [Fenretinide],scaled lipid accumulation score,library stock concentration: 5.1 mM,inactive: ≤ -0.006
same,scaled lipid accumulation score,[2],inactive: 0.046
NC(=O)c1ncn([C@@H]2O[C@H](CO)[C@@H](O)[C@H]2O)c1N,scaled lipid accumulation score,[2],inactive: ≤ 0
NC(=O)c1ncn([C@@H]2O[C@H](CO)[C@@H](O)[C@H]2O)c1N [Acadesine],scaled lipid accumulation score,[1],inactive: ≤ 0
same,scaled lipid accumulation score,[2],inactive: ≤ 0
COc1cc(C(C)=O)ccc1OCCCN1CCC(c2noc3cc(F)ccc23)CC1,scaled lipid accumulation score,[2],active: 0.933
O=S(=O)(c1ccccc1)c1cnc2c(N3CCNCC3)cccc2c1,scaled lipid accumulation score,[2],active: 0.994
"O=P(O)(O)OC1[C@H](OP(=O)(O)O)[C@H](O)C(O)[C@H](O)[C@H]1OP(=O)(O)O (stereo partly drawn) [D-myo-Inositol-1,2,6-triphosphate (sodium salt)]",scaled lipid accumulation score,[3],inactive: 0.004
CCC(=O)O[C@H]1[C@H](O[C@@H]2[C@@H](C)[C@H](O[C@H]3C[C@@](C)(OC)[C@@H](O)[C@H](C)O3)[C@@H](C)C(=O)O[C@H](CC)[C@@](C)(O)[C@H](O)[C@@H](C)C(=O)[C@H](C)C[C@@]2(C)O)O[C@H](C)C[C@@H]1N(C)C [Erythromycin estolate],scaled lipid accumulation score,library stock concentration: 1.9 mM,inactive: ≤ 0
same,scaled lipid accumulation score,[2],inactive: 0.014
Nc1ncnc2c1ncn2[C@@H]1O[C@H](COP(=O)(O)O)[C@@H](O)[C@H]1O [Adenosine phosphate],scaled lipid accumulation score,library stock concentration: 5.8 mM,inactive: ≤ 0
same,scaled lipid accumulation score,[2],inactive: ≤ 0
CCCC(=O)Oc1ccc2[nH]c(C(=O)c3cc4ccccc4[nH]3)cc2c1 [PDGF Receptor Tyrosine Kinase Inhibitor II],scaled lipid accumulation score,[1],inactive: ≤ 0
C[N+]1(C)CCC(=C(c2ccccc2)c2ccccc2)CC1 [Diphemanil methylsulfate],scaled lipid accumulation score,,inactive: ≤ 0
C[N+]1(C)CCC(=C(c2ccccc2)c2ccccc2)CC1 [Diphemanil Methylsulfate],scaled lipid accumulation score,[1],inactive: ≤ 0
same,scaled lipid accumulation score,[2],inactive: 0.001
COc1cc(/C=C/C(=O)O)ccc1O [Ferulic Acid],scaled lipid accumulation score,[1],inactive: ≤ 0
same,scaled lipid accumulation score,[2],inactive: ≤ 0
COc1cc(/C=C/C(=O)O)ccc1O [Ferulic acid],scaled lipid accumulation score,[2],inactive: ≤ 0
NS(=O)(=O)c1cc2c(cc1Cl)NCNS2(=O)=O,scaled lipid accumulation score,[2],inactive: 0.026
NS(=O)(=O)c1cc2c(cc1Cl)NCNS2(=O)=O [Hydrochlorothiazide],scaled lipid accumulation score,,inactive: ≤ 0
same,scaled lipid accumulation score,[1],inactive: ≤ 0
same,scaled lipid accumulation score,library stock concentration: 6.7 mM,inactive: 0.001
same,scaled lipid accumulation score,[2],inactive: ≤ 0 and inactive: ≤ -0.07
O=C1C(=O)N(Cc2ccc(Cl)c(Cl)c2)c2ccccc21 [Apoptosis Activator 2],scaled lipid accumulation score,[1],inactive: ≤ 0
same,scaled lipid accumulation score,[2],inactive: ≤ 0 and inactive: 0.068
O=C(NC1CCOCC1)c1ccc(-c2cc(-c3c[nH]nc3-c3ccccn3)ccn2)cc1,scaled lipid accumulation score,[1],inactive: ≤ 0
same,scaled lipid accumulation score,[2],inactive: ≤ 0
CN(C)CCc1c[nH]c2ccc(C[C@H]3COC(=O)N3)cc12 [zolmitriptan],scaled lipid accumulation score,library stock concentration: 6.6 mM,inactive: ≤ -0.006
CN(C)CCc1c[nH]c2ccc(C[C@H]3COC(=O)N3)cc12 [Zolmitriptan],scaled lipid accumulation score,[1],inactive: ≤ 0
same,scaled lipid accumulation score,library stock concentration: 7 mM,inactive: ≤ 0
same,scaled lipid accumulation score,[2],inactive: ≤ 0 and inactive: 0.229
O=C1c2cccc(O)c2C(=O)c2c(O)cc(CO)cc21 [Aloe-emodin],scaled lipid accumulation score,[1],inactive: ≤ 0
same,scaled lipid accumulation score,[2],inactive: ≤ 0
O=c1[nH]c(=O)n([C@H]2C[C@H](O)[C@@H](CO)O2)cc1F [Floxuridine],scaled lipid accumulation score,[1],inactive: ≤ 0
same,scaled lipid accumulation score,library stock concentration: 8.1 mM,inactive: ≤ 0
same,scaled lipid accumulation score,[2],inactive: ≤ 0 and inactive: ≤ -0.027
CNNCc1ccc(C(=O)NC(C)C)cc1,scaled lipid accumulation score,[2],inactive: ≤ 0
CNNCc1ccc(C(=O)NC(C)C)cc1 [Procarbazine hydrochloride],scaled lipid accumulation score,,inactive: ≤ 0
CNNCc1ccc(C(=O)NC(C)C)cc1 [Procarbazine HCl],scaled lipid accumulation score,library stock concentration: 9 mM,inactive: ≤ 0
CC(C)CC(NC(=O)OCC1c2ccccc2-c2ccccc21)C(=O)O (stereo not drawn),scaled lipid accumulation score,[2],inactive: 0.017
Nc1ccc(C(=O)Oc2ccccc2)c(O)c1 [Phenyl aminosalicylate],scaled lipid accumulation score,library stock concentration: 8.7 mM,inactive: 0.075
Cl.O=C(CCCN1CCC(O)(c2cccc(C(F)(F)F)c2)CC1)c1ccc(F)cc1 [Trifluperidol hydrochloride],scaled lipid accumulation score,[2],active: 0.88
COc1cc(C)c(/C=C/C(C)=C/C=C/C(C)=C/C(=O)O)c(C)c1C [Acitretin],scaled lipid accumulation score,[1],inactive: 0.039
same,scaled lipid accumulation score,[2],inactive: ≤ 0
C[n+]1cccc(C(=O)[O-])c1 [Trigonelline],scaled lipid accumulation score,,inactive: ≤ 0
CCCCCCCCCCCCCCC[C@@H](O)[C@@H](N)CO [Dihydrosphingosine],scaled lipid accumulation score,[3],inactive: 0.033
CNCCC(Oc1ccc(C(F)(F)F)cc1)c1ccccc1.Cl (stereo not drawn) [Fluoxetine hydrochloride],scaled lipid accumulation score,,active: 1.05
CN(C)CCCN1c2ccccc2CCc2ccc(Cl)cc21.Cl [Clomipramine hydrochloride],scaled lipid accumulation score,[2],active: 1.01
CC(C)(F)C[C@H](N[C@@H](c1ccc(-c2ccc(S(C)(=O)=O)cc2)cc1)C(F)(F)F)C(=O)NC1(C#N)CC1 [Odanacatib (MK-0822)],scaled lipid accumulation score,[1],inactive: ≤ 0
same,scaled lipid accumulation score,[2],inactive: ≤ 0
CC(C)OC(=O)CCC/C=C\C[C@@H]1[C@@H](CC[C@@H](O)CCc2ccccc2)[C@H](O)C[C@@H]1O [Latanoprost (free acid)],scaled lipid accumulation score,[3],inactive: ≤ 0
CC1(C)[C@@H](O[C@H]2O[C@H](C(=O)O)[C@@H](O)[C@H](O)[C@H]2O[C@@H]2O[C@H](C(=O)O)[C@@H](O)[C@H](O)[C@H]2O)CC[C@]2(C)[C@H]3C(=O)C=C4[C@@H]5C[C@@](C)(C(=O)O)CC[C@]5(C)CC[C@@]4(C)[C@]3(C)CC[C@@H]12 [Ammonium Glycyrrhizinate],scaled lipid accumulation score,[1],inactive: ≤ 0
same,scaled lipid accumulation score,[2],inactive: ≤ 0
CCOC(=O)CCC(=O)O[C@H]1[C@H](O[C@@H]2[C@@H](C)[C@H](O[C@H]3C[C@@](C)(OC)[C@@H](O)[C@H](C)O3)[C@@H](C)C(=O)O[C@H](CC)[C@@](C)(O)[C@H](O)[C@@H](C)C(=O)[C@H](C)C[C@@]2(C)O)O[C@H](C)C[C@@H]1N(C)C [Erythromycin ethylsuccinate],scaled lipid accumulation score,library stock concentration: 2.3 mM,inactive: ≤ -0.001
same,scaled lipid accumulation score,[2],inactive: ≤ 0
CCOC(=O)CCC(=O)O[C@H]1[C@H](O[C@@H]2[C@@H](C)[C@H](O[C@H]3C[C@@](C)(OC)[C@@H](O)[C@H](C)O3)[C@@H](C)C(=O)O[C@H](CC)[C@@](C)(O)[C@H](O)[C@@H](C)C(=O)[C@H](C)C[C@@]2(C)O)O[C@H](C)C[C@@H]1N(C)C [Eryped],scaled lipid accumulation score,[2],inactive: ≤ 0
COc1cc(NC(=O)c2ccc(-c3ccc(Cl)cc3)o2)cc(OC)c1,scaled lipid accumulation score,[1],inactive: ≤ 0
same,scaled lipid accumulation score,[2],inactive: 0.431
C[C@]12C=CC(=O)C=C1CC[C@@H]1[C@@H]2C(=O)C[C@@]2(C)[C@H]1CC[C@]2(O)C(=O)CO [Prednisone],scaled lipid accumulation score,,inactive: ≤ 0
same,scaled lipid accumulation score,[1],inactive: ≤ 0
same,scaled lipid accumulation score,[2],inactive: ≤ 0
C[C@]12C=CC(=O)C=C1CC[C@@H]1C2=CC[C@]2(C)[C@@H](C(=O)CN3CCN(c4cc(N5CCCC5)nc(N5CCCC5)n4)CC3)CC[C@@H]12,scaled lipid accumulation score,[2],inactive: ≤ 0
Nc1ncnc2nc(-c3ccc(N4CCOCC4)nc3)cc(-c3cccc(Br)c3)c12 [ABT 702 dihydrochloride],scaled lipid accumulation score,[2],inactive: 0.275
Nc1ncnc2nc(-c3ccc(N4CCOCC4)nc3)cc(-c3cccc(Br)c3)c12,scaled lipid accumulation score,library stock concentration: 80 uM,inactive: ≤ -0.001
same,scaled lipid accumulation score,library stock concentration: 400 uM,inactive: 0.008
same,scaled lipid accumulation score,library stock concentration: 2 mM,inactive: ≤ -0.001
CC(C)C(=O)Nc1ncc(-c2cc(C(F)F)nn2-c2c(Cl)cccc2Cl)s1,scaled lipid accumulation score,[2],active: 1.1
c1ccc2c(Oc3nc(Nc4ccc(N5CCOCC5)cc4)c4ncn(C5CCCCC5)c4n3)cccc2c1 [Purmorphamine],scaled lipid accumulation score,[3],inactive: ≤ 0
same,scaled lipid accumulation score,[1],inactive: ≤ 0
same,scaled lipid accumulation score,[2],inactive: 0.032
COCC(=O)NC/C=C/c1ccc2ncnc(Nc3ccc(Oc4ccc(C)nc4)c(C)c3)c2c1,scaled lipid accumulation score,[2],active: 1.46
O=c1ccc2c(OCCCCc3ccccc3)c3ccoc3cc2o1 [Psora-4],scaled lipid accumulation score,[2],inactive: ≤ 0
CCn1cc(C(=O)O)c(=O)c2cc(F)c(N3CCNC(C)C3)c(F)c21 (stereo not drawn) [Lomefloxacin HCl],scaled lipid accumulation score,library stock concentration: 5.7 mM,inactive: ≤ 0
CCn1cc(C(=O)O)c(=O)c2cc(F)c(N3CCNC(C)C3)c(F)c21 (stereo not drawn) [Lomefloxacin hydrochloride],scaled lipid accumulation score,,inactive: ≤ 0
same,scaled lipid accumulation score,library stock concentration: 5.2 mM,inactive: ≤ 0
same,scaled lipid accumulation score,[2],inactive: ≤ 0 and inactive: 0.236
COc1cc(C)nc(-n2nc(C)cc2OC)n1,scaled lipid accumulation score,[2],inactive: 0.03
COc1cc(C)nc(-n2nc(C)cc2OC)n1 [Epirizole],scaled lipid accumulation score,,inactive: ≤ 0
Cc1nc(Nc2n[nH]c3c2CN(C(=O)N[C@H](CN(C)C)c2ccccc2)C3(C)C)c2sccc2n1,scaled lipid accumulation score,[2],active: 0.887
